{"source": "PubChem BioAssay AID1476", "about": "(National Center for Advancing Translational Sciences (NCATS), 2009)", "note": "The campaign covered roughly 200,000 compounds. About 4,500 (2.2%) were called active. Inconclusive means that the source gave no clear call. Such entries were picked first, then a sample of the others. Calls follow the shape of the dose curve; as a rule, active = well fitted inhibition curve with a large enough effect; inconclusive = small, poorly fitted or top-dose-only effect, or effect the other way; inactive = flat fitted curve, though single readings scatter. Where the call is inconclusive, the potency comes from a doubtful curve fit. Potency is read from the fitted curve at half-maximal effect; tags tell the direction and shape of the fitted curve.", "data": [{"biological_target": "Cruzipain (Trypanosoma cruzi) (UniProt P25779)", "sequence (P25779 whole entry, looked up)": "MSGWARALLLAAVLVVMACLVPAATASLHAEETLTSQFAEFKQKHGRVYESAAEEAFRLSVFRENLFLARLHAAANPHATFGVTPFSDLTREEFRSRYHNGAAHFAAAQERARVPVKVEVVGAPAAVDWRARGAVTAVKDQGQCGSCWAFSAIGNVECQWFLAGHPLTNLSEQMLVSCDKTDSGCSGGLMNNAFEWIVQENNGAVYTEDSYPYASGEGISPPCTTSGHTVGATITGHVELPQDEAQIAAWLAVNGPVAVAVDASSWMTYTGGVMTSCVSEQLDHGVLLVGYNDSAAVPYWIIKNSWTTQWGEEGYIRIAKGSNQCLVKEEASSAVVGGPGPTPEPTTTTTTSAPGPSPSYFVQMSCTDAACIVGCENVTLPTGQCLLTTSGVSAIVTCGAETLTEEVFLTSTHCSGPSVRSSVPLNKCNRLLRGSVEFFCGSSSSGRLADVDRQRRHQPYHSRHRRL", "assay": "qHTS Assay for Promiscuous and Specific Inhibitors of Cruzain (without detergent); also: nearly all actives have a fitted effect of over 40% in size;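 as to max response, negative = inhibition: plate controls were enzyme without inhibitor for no effect and buffer without enzyme for full effect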", "conditions": "purified cruzain, Z-FR-AMC fluorescence, no detergent", "procedure,_shortened": "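Purified cruzain at 1.5 nM, pre-incubated 15 min with compound at room temperature in 100 mM sodium acetate pH 5.5, 5 mM DTT, 0.00005% Triton X-100. Reaction started with 2 uM Z-FR-AMC; AMC fluorescence increase over 60 s gives rate.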", "values": [{"compound": "Cc1ccc(S(=O)(=O)N2CCc3cc(C(=O)N(C)Cc4ccccc4)ccc32)cc1", "max response, negative = inhibition": "inactive: 4.57%"}, {"compound": "Cc1ccccc1-n1c(SCC(=O)Nc2ccc(Cl)cc2Cl)nc(O)cc1=O", "max response, negative = inhibition": "inactive: 0.991%"}, {"compound": "Cc1ccc(-n2nc(C)c3c(=O)[nH]c(C(F)(F)F)nc32)cc1", "Potency": "inconclusive: 39.8 µM [inhibitor, single point]"}, {"compound": "O=C1C2C(c3ccccc3)(C(=O)N1c1ccc(Cl)cc1)C2(c1ccccc1)c1ccccc1", "note": "(stereo unspecified)", "Potency": "active: 25.1 µM"}, {"compound": "CC(=O)Nc1cccc(NC(=O)CSc2ncc(-c3ccc(Cl)cc3)n2Cc2ccco2)c1", "Potency": "inconclusive: 25.1 µM [activator, single point]"}, {"compound": "CCN1c2ccccc2-n2cccc2C12CCN(C(=O)Nc1ccccc1Br)CC2", "Potency": "inconclusive: 39.8 µM [inhibitor, single point]"}, {"compound": "COC(=O)[C@@H]1C[C@@]2(O)[C@@H](O)[C@@H](O)[C@@H](O)C[C@H]2N1CC1CC1", "max response, negative = inhibition": "inactive: -3.06%"}, {"compound": "COC(=O)[C@@H]1C[C@@]2(O)[C@@H](O)[C@@H](O)[C@@H](O)C[C@H]2N1Cc1cc(F)ccc1F", "max response, negative = inhibition": "inactive: 0.103%"}, {"compound": "COc1ccc(NC(=O)CSc2nc3c(cc2C#N)CN(C)CC3)cc1", "Potency": "inconclusive: 31.6 µM [inhibitor, single point]"}, {"compound": "COc1ccc(OC/C(O)=C(\\C#N)c2nc3ccccc3[nH]2)cc1", "Potency": "active: 25.1 µM"}, {"compound": "CCOC(=O)C1Cn2c(nc3c(c2=O)C(C)(CC)Cc2ccccc2-3)S1", "note": "(stereo unspecified)", "Potency": "inconclusive: 25.1 µM [activator, single point]"}, {"compound": "CC(C)Oc1ccc(C(=O)N2CCN(c3nc4c(F)cc(F)cc4s3)CC2)cc1", "max response, negative = inhibition": "inactive: -0.625%"}, {"compound": "CN1CCN(C(=S)NC(=O)c2ccc(C(C)(C)C)cc2)CC1", "max response, negative = inhibition": "inactive: -4.21%"}, {"compound": "O=C1C(NS(=O)(=O)c2cccs2)=C(N2CCN(c3cccc(C(F)(F)F)c3)CC2)C(=O)c2ccccc21", "Potency": "inconclusive: 10 µM [inhibitor, partial curve]"}, {"compound": "Cc1cc(C)cc(NC(=O)N2CCC(C(N)=O)(N3CCCCC3)CC2)c1", "max response, negative = inhibition": "inactive: -0.777%"}, {"compound": "COc1ccc(C(F)(F)F)cc1N/C=C\\c1nnnn1-c1ccc(C)cc1", "Potency": "inconclusive: 25.1 µM [inhibitor, single point]"}, {"compound": "CCOC(=O)N1CCC(NC(=O)c2cnn(-c3ccc(F)cc3)c2-n2cccc2)CC1", "max response, negative = inhibition": "inactive: 5.16%"}, {"compound": "O=C(O)c1ccc(NCc2nc3ccccc3n2CCOc2ccccc2Cl)cc1", "Potency": "inconclusive: 20 µM [inhibitor, single point]"}, {"compound": "O=C(CSc1nc(=O)n(Cc2cccnc2)c2c1CCC2)Nc1cccc(Cl)c1", "Potency": "inconclusive: 39.8 µM [activator, single point]"}, {"compound": "Cc1ccc(Nc2nc(CSc3nnc(-c4cccs4)o3)cs2)cc1", "Potency": "inconclusive: 31.6 µM [inhibitor, single point]"}, {"compound": "CCOCCCNC(=O)CNC(=S)N(Cc1ccccc1F)C1CCCCC1", "Potency": "inconclusive: 31.6 µM [activator, single point]"}, {"compound": "COC(=O)C=P(c1ccccc1)(c1ccccc1)c1ccccc1", "max response, negative = inhibition": "inactive: -2.06%"}, {"compound": "COc1cc2c(=O)n(Cc3ccco3)c(=O)n(CC(=O)Nc3ccc(F)cc3)c2cc1OC", "max response, negative = inhibition": "inactive: 4.69%"}, {"compound": "N#CC1=C(N)SC(N)=C(C#N)C1c1cccc(Oc2ccccc2)c1", "Potency": "active: 25.1 µM"}, {"compound": "O=c1c2c3c(sc2nnn1Cc1ccc(F)cc1)CCCC3", "max response, negative = inhibition": "inactive: -8.14%"}, {"compound": "COc1ccc(CC(NC(C)=O)C(=O)NC2CCN(S(=O)(=O)c3cccc4ccccc34)CC2)cc1OC", "note": "(stereo unspecified)", "Potency": "inconclusive: 25.1 µM [activator, single point]"}, {"compound": "Cc1ccc(C(=O)Nc2nnc(S(=O)(=O)N(C)Cc3ccc(F)cc3)s2)cc1", "Potency": "inconclusive: 31.6 µM [inhibitor, single point]"}, {"compound": "CCn1c(=O)cc(SCC(=O)Nc2cc(Cl)ccc2OC)c2ccccc21", "Potency": "inconclusive: 39.8 µM [activator, single point]"}, {"compound": "CCOC(=O)N1CCC(NC(=O)c2ccc(CS(=O)(=O)c3ccc(OC)cc3)o2)CC1", "max response, negative = inhibition": "inactive: -2.29%"}, {"compound": "CC(C)C(=O)N1CCC(c2nc(-c3ccc(S(=O)(=O)N4CCCC4)cc3)no2)CC1", "Potency": "inconclusive: 39.8 µM [activator, single point]"}, {"compound": "Cc1ccc(C(=O)N2CCN(c3ccc([N+](=O)[O-])c(NCc4ccco4)c3)CC2)cc1", "Potency": "inconclusive: 31.6 µM [inhibitor, single point]"}, {"compound": "COc1ccc(-c2ocnc2C(=O)Nc2ccccc2N2CCCCC2)cc1", "Potency": "inconclusive: 25.1 µM [inhibitor, single point]"}, {"compound": "CCC(=O)N1CCCc2cc(S(=O)(=O)N3CCN(c4ccccc4F)CC3)ccc21", "Potency": "inconclusive: 39.8 µM [activator, single point]"}, {"compound": "CCC/C=C(\\CCC)C(NP(=O)(c1ccccc1)c1ccccc1)c1ccc(C(F)(F)F)cc1", "note": "(stereo unspecified)", "max response, negative = inhibition": "inactive: -3.56%"}, {"compound": "COc1cc(/C=N/NC(N)=O)cc(Br)c1OCc1ccc(C)cc1", "Potency": "inconclusive: 39.8 µM [inhibitor, single point]"}, {"compound": "CCOC(=O)C1CCCN(C(=O)Cn2ncc3c(C)n(Cc4ccc(F)cc4)c(C)c3c2=O)C1", "note": "(stereo unspecified)", "Potency": "inconclusive: 39.8 µM [activator, single point]"}, {"compound": "CCCn1c(SCC(=O)Nc2nc3c(s2)CCCC3)nc2c1c(=O)n(C)c(=O)n2C", "Potency": "inconclusive: 31.6 µM [activator, single point]"}, {"compound": "COc1ccc(S(=O)(=O)N2CCCN(CC(=O)Nc3cc(NC(C)=O)ccc3OC)CC2)cc1", "Potency": "inconclusive: 31.6 µM [activator, single point]"}, {"compound": "Cc1nc2cc(N3CCOCC3)c(NC(=O)C3CC3)cc2c(=O)n1Cc1ccccc1", "Potency": "inconclusive: 39.8 µM [activator, single point]"}, {"compound": "COc1ccc(-c2nnn(CC(=O)N(CC(=O)NC3CCCC3)c3cccc(C)c3)n2)cc1OC", "Potency": "inconclusive: 39.8 µM [activator, single point]"}, {"compound": "CCc1cccc(NC(=O)CSc2n[nH]c(-c3ccccc3Cl)n2)c1", "max response, negative = inhibition": "inactive: -8.03%"}, {"compound": "FC(F)(F)c1ccc(N2CCOCC2)c(Nc2nc3ccccc3n3cnnc23)c1", "Potency": "inconclusive: 15.8 µM [activator, partial curve]"}, {"compound": "Cc1nn(Cc2ccc(C(=O)Nc3ccccc3C(F)(F)F)o2)c(C)c1Br", "Potency": "inconclusive: 39.8 µM [activator, single point]"}, {"compound": "Cc1cc(NC(=O)CSc2ccc(-c3nc4cc(C)c(C)cc4[nH]3)cn2)no1", "Potency": "inconclusive: 39.8 µM [inhibitor, single point]"}, {"compound": "Cc1ccc(CNC(=O)/C=C/c2c(Cl)cccc2Cl)cc1", "Potency": "active: 25.1 µM"}, {"compound": "Oc1ccc(N=C/C=C/c2cccc(Br)c2)cc1-c1nc2ccccc2s1", "Potency": "active: 20 µM"}, {"compound": "COc1ccc2sc(N(Cc3cccnc3)C(=O)C3COc4ccccc4O3)nc2c1", "note": "(stereo unspecified)", "max response, negative = inhibition": "inactive: -4.39%"}, {"compound": "COc1ccc(NC(=O)c2nnn(Cc3ccc(SC)cc3)c2N)c(OC)c1", "Potency": "inconclusive: 39.8 µM [inhibitor, single point]"}, {"compound": "Cc1nn(-c2ccccc2)c(N2CCCC2)c1/C=N/NC(=S)Nc1ccccc1C(F)(F)F", "Potency": "inconclusive: 39.8 µM [inhibitor, single point]"}, {"compound": "CC(C(=O)N1CCC(C(N)=O)CC1)N(c1ccc(Oc2ccccc2)cc1)S(C)(=O)=O", "note": "(stereo unspecified)", "Potency": "inconclusive: 39.8 µM [activator, single point]"}, {"compound": "Cc1ccc(N/N=C(/Sc2nnnn2-c2ccccc2)C(=O)c2ccccc2)cc1", "Potency": "active: 31.6 µM"}, {"compound": "Cc1ccc(NC(=O)CSc2cn(CC(=O)N3CCOCC3)c3ccccc23)cc1Cl", "Potency": "inconclusive: 39.8 µM [activator, single point]"}, {"compound": "Cc1ccc2c(=O)cc(C(=O)Nc3ccc(S(=O)(=O)N4CCCCC4)cc3)oc2c1", "max response, negative = inhibition": "inactive: -15.9%"}, {"compound": "COc1cc2c(cc1OC)C(c1ccccc1O)N(C1CC(=O)N(c3ccccc3)C1=O)CC2", "note": "(stereo unspecified)", "Potency": "inconclusive: 31.6 µM [activator, single point]"}, {"compound": "COC(=O)c1ccccc1NC(=O)CCC(=O)N1CC(C)Sc2ccccc21", "note": "(stereo unspecified)", "max response, negative = inhibition": "inactive: 2.79%"}, {"compound": "COC(=O)c1c(/N=C/N(C)C)sc2c1CCN(c1ncc(C(F)(F)F)cc1Cl)C2", "Potency": "inconclusive: 25.1 µM [activator, partial curve]"}, {"compound": "COC(=O)N[C@H](C[N+](=O)[O-])c1cccc(C)c1", "max response, negative = inhibition": "inactive: 6.04%"}, {"compound": "O=C(Nc1ccc(Cl)c(-c2nc3ccccc3o2)c1)c1ccc(-c2cccc([N+](=O)[O-])c2)o1", "max response, negative = inhibition": "inactive: -26.8%"}, {"compound": "Cc1[nH]c2ccccc2c1/C=N/NC(=O)c1cccc(S(=O)(=O)Nc2ccccc2Cl)c1", "Potency": "inconclusive: 39.8 µM [inhibitor, single point]"}, {"compound": "COc1ccccc1C(=O)Nc1cc2cc(Br)ccc2oc1=O", "Potency": "active: 15.8 µM"}, {"compound": "CCCCC(=O)Nc1ccc(C(=O)NNC(=O)CCCOc2ccc(Cl)cc2Cl)cc1", "Potency": "inconclusive: 39.8 µM [inhibitor, single point]"}, {"compound": "O=C(Nc1cccc(F)c1)N1CCCC2(CCN(C(=O)c3ccncc3)CC2)C1", "max response, negative = inhibition": "inactive: -1.05%"}, {"compound": "Cc1ccccc1Nc1c(-c2ccc(Br)cc2O)nc2sccn12", "Potency": "active: 20 µM"}, {"compound": "O=C(CSc1nc(=O)n(Cc2ccco2)c2c1CCC2)Nc1cccc(F)c1", "max response, negative = inhibition": "inactive: -11.8%"}, {"compound": "CCOc1cc(C2C(C#N)=C(N)Oc3c2c(=O)oc2ccccc32)ccc1OC(=O)c1cccs1", "note": "(stereo unspecified)", "Potency": "inconclusive: 25.1 µM [inhibitor, single point]"}, {"compound": "Cc1cccc(NC(=O)CNC(=O)COc2ccc(C(=O)c3ccc(F)cc3)cc2)c1C", "Potency": "inconclusive: 39.8 µM [inhibitor, single point]"}]}]}
